The campaign covered roughly 310,000 compounds. About 14,000 (4.5%) showed an effect of 50% or more. Effects have a minus sign here. The list shows a part of the results.
Molecular target: human ether-à-go-go-related gene (hERG) potassium channel (human, UniProt Q12809)
Test: primary screen, population patch clamp on CHO cells stably expressing hERG
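Further: peak tail current of the secondary pulse compared with the same well before compound.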

Chain of human ether-à-go-go-related gene (hERG) potassium channel (Q12809 whole entry, looked up): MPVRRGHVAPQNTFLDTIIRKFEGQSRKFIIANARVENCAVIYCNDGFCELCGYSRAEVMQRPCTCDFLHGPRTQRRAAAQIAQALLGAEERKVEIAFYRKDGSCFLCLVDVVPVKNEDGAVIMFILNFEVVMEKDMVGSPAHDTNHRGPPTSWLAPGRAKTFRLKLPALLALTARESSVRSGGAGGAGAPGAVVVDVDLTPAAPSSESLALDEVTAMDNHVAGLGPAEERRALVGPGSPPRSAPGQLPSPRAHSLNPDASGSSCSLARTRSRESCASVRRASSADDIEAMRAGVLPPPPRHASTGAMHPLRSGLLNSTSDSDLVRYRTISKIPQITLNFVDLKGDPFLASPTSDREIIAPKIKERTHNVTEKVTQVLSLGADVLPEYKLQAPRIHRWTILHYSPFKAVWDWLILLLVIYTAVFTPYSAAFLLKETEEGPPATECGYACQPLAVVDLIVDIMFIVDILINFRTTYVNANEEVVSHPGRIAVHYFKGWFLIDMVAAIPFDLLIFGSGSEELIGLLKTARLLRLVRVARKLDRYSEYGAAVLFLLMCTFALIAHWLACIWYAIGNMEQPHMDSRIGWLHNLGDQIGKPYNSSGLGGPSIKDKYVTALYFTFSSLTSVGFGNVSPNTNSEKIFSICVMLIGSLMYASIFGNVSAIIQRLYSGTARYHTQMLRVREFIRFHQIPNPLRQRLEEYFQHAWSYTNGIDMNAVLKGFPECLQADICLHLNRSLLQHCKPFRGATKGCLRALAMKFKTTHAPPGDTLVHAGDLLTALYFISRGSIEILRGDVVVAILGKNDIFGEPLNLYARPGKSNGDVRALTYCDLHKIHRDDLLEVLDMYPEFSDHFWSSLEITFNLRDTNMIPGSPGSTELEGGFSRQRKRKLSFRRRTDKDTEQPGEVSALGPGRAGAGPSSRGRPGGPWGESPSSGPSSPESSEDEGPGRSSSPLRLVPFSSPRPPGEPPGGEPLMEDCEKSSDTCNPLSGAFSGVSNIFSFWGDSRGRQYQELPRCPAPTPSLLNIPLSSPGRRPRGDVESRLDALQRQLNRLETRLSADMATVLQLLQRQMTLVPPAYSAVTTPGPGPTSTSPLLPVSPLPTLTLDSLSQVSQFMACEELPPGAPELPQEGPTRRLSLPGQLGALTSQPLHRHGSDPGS

SMILES	hERG current change (%, negative = inhibition) at 10uM [%]
Cn1ccnc1P(=S)(c1nccn1C)c1nccn1C	-0.952
S=C(NCCc1ccc(Cl)cc1)NCc1ccccc1	-18.5
CC(C)c1ccc(C2/C(=C(/O)c3ccccc3)C(=O)C(=O)N2CCCN2CCOCC2)cc1 (stereo not shown)	25.6
Cc1[nH]nc2oc(=O)c(CCO)c(C)c12	-8.97
O=C(Cn1cnc2ccccc21)Nc1ccc2c(c1)OCCCO2	-3.29
Cc1cc(C)cc(NC(=O)COC(=O)CCC2CCCC2)c1	10.7
Cc1ccc(NC(=O)C2CC(O)CN2C(=O)OCc2ccccc2)c(C)c1 (stereo not shown)	13.7
CC(C)NS(=O)(=O)c1ccc(CCC(=O)NCc2ccco2)cc1	-0.0648
CCCCOC(=O)Nc1ccc(C(N)=O)cc1	-6.35
Cc1ccc(S(=O)(=O)N2CCN(C(=O)COC(=O)c3cccnc3Cl)CC2)c(C)c1	-7.65
CCC(=O)N1CCCc2cc(S(=O)(=O)CCC(=O)Nc3ccccc3C)ccc21	1.55
CC(C)(C)OC(=O)N[C@H](C(=O)OC(C)(C)C)c1ccc2ccccc2c1	3.18
COC(=O)c1ccc(NS(=O)(=O)c2cccc3cccnc23)cc1	33.3
C=CCN1C(=O)C(Cc2ccc(OCC)cc2)S/C1=N\N=C\c1cccs1 (stereo not shown)	2.79
Clc1cc(Cl)cc(NC2=NCCS2)c1	-10.4
O=S(=O)(c1cccs1)N1CCCc2cccc(O)c21	7.34
COC(=O)c1ccccc1NC(=O)C1CCN(c2ncnc3c2nc2n3CCCCC2)CC1	-24.9
CCn1cc(CN2CCC(C(=O)Nc3cccc(-c4cccc(Cl)c4)c3)CC2)cn1	-67.9
O=C(Cc1cccs1)N/N=C/C=C/c1ccco1	-0.423
Cc1ccc(C(=O)Oc2cccc(NC(=O)c3ccco3)c2)cc1S(=O)(=O)N1CCC(C)CC1	-12.1
O=S1(=O)N=C(Nc2ccc(O)c(CN3CCCCC3)c2)c2ccccc21	-21.3
O=C1/C(=C\c2ccc(-c3ccccc3Cl)o2)SC(=S)N1CC1CCCO1 (stereo not shown)	1.06
CC(C)CC(CO)N1CCN(C(=O)c2ccc(Cl)c(Cl)c2)CCC1=O (stereo not shown)	4.77
CCOc1cccc(CNc2ccc(O)cc2)c1OCc1ccc(Cl)cc1Cl	1.69
COC(=O)[C@@]1(Cc2ccc(OC)cc2)[C@H]2c3cc(C(=O)N4CCCC4)n(CCn4cc([N+](=O)[O-])nc4C)c3C[C@H]2CN1C(=O)c1ccccc1	2.3
CC(=O)c1ccc(N2CCN(S(=O)(=O)c3ccccc3)CC2)c(F)c1	-15.8
NC(=S)N=Nc1c(O)n(CC(=O)Nc2ccccc2)c2ccccc12	16.4
Nc1nc2c(C(=O)N3CCOCC3)nnn2c2ccccc12	14

SMILES	hERG current change (%, negative = inhibition) at 10uM [%]
CCNC(=S)N/N=C(\C)c1ccc(N2CCOCC2)cc1	13.7
Fc1cccc(/C=N/Nc2nccnc2Cl)c1	10.7
CCC(C)NC(=O)c1ccc(N2CC3CC(C2)c2cccc(=O)n2C3)c(NC(=O)c2ccc(Br)o2)c1 (stereo not shown)	5.86
CCOC(=O)N1CCN(C(=O)c2cc3cc(Cl)ccc3[nH]2)CC1	-15.7
NS(=O)(=O)c1ccc(CCNS(=O)(=O)c2cccc3cccnc23)cc1	4.78
Cc1nc2ccc(C(=O)N3CCN(c4ccccn4)CC3)cc2s1	10.2
O=C(COC(=O)C1CCN(c2ccc(C(F)(F)F)cn2)CC1)Nc1cc(F)ccc1F	15.4
COCCN(C(=O)CSc1nnc(-c2cccc(C)c2)n1C)c1c(N)n(Cc2ccccc2)c(=O)[nH]c1=O	8.29
CC(=O)c1cccc(NC(=O)N2C3CCC2CC(NC(=O)C2CC2)C3)c1 (stereo not shown)	16.3
C=CCOc1ccc(/C=C2\SC(N3CCCCC3)=NC2=O)cc1	12.2
O=C([O-])c1cc(-c2ccccc2)cc(-c2ccccc2)[n+]1Cc1ccccc1	-10.1
Cc1ccc(OCC(=O)NCc2cccs2)c([N+](=O)[O-])n1	-19
COc1ccc(C(=O)NCc2nnc(SCC(=O)Nc3cccc(F)c3)o2)cc1	-1.96
O=C(CSc1nnc(-c2ccc(F)cc2)o1)N1CCN(C(=O)c2ccco2)CC1	-38.4
CCOC(=O)c1sc(C)c2c1NC(C)(c1ccccc1)NC2=O (stereo not shown)	2.4
COc1ccccc1OCCCC(=O)Nc1nnc(C2CCCO2)s1 (stereo not shown)	8.75
O=C(CC1C(=O)NCCN1Cc1ccccc1F)NC1CCCCCC1 (stereo not shown)	5.01
Cc1ccc(OCC(=O)Nc2cnn(CCCC(=O)O)c2)c([N+](=O)[O-])c1	3.59
CCOc1ccccc1NC(=O)NCc1ccc2c(c1)OCO2	22.4
CC(=O)Nc1cccc(OC(=O)COc2ccc(Br)cc2)c1	-1.19
O=C1NCCCC1C(=O)N/N=C/c1cccc(Cl)c1 (stereo not shown)	22.8
O=C(Cc1ccccc1)NC1CCN(S(=O)(=O)c2ccc(C(=O)O)cc2)CC1	5.11
COc1ccc(C)cc1N(CC(=O)Nc1ccc(S(=O)(=O)N2CCCC2)cc1)S(C)(=O)=O	-15.9
Cn1c(Cl)c(C(=O)Nc2ccc(Cl)cc2)c2ccccc21	18.5
O=C(Nc1ccc(N2CCOCC2)c([N+](=O)[O-])c1)c1ccco1	-6.41
COc1ccc(C(=O)Nc2nnc(CCc3ccccc3)s2)c(OC)c1	18
CC(C)C(=O)N1CCN(c2c(Cl)cccc2[N+](=O)[O-])CC1	-16.5
